{"source": "the supplement of paper PMC12645437", "about": "“Orthogonal IMiD-Degron Pairs Induce Selective Protein Degradation in Cells” (ACS Chemical Biology, 2025)", "note": "This is one part of the list.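 Note: jurkat cells carrying a lentiviral library of mutant zinc finger degrons fused to EGFP plus mCherry, mCherry+ cells FACS sorted, degron abundance counted by next-generation sequencing.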"}
{"target": "no compound (DMSO)", "experiment": "log2 fold change of degron read counts, EGFP-low vs EGFP+ sorted cells; higher = lower degron-EGFP level without compound (poor expression or instability)", "conditions": "compound: DMSO control; 18 h"}
{"sequence": "FYCDVCGAGFTQKGNLLRHIKL", "log2 fold change of degron read counts": -0.694}
{"sequence": "FMCPVCGARFTQKGNLLRHIKL", "log2 fold change of degron read counts": -0.509}
{"sequence": "FKCNVCGAAFTQKGNLLRHIKL", "log2 fold change of degron read counts": -0.871}
{"sequence": "FSCPICGAMFTQKGNLLRHIKL", "log2 fold change of degron read counts": 0.537}
{"sequence": "LYCEICGFTCTQKGNLLRHIKL", "log2 fold change of degron read counts": 0.0527}
{"sequence": "LMCEICGFICTQKGNLLRHIKL", "log2 fold change of degron read counts": 0.195}
{"sequence": "FVCNQCGHWFTQKGNLLRHIKL", "log2 fold change of degron read counts": -0.594}
{"sequence": "FQCNICGACFTQKGNLLRHIKL", "log2 fold change of degron read counts": -0.978}
{"sequence": "FLCPQCGAFFTQKGNLLRHIKL", "log2 fold change of degron read counts": 0.668}
{"sequence": "FQCNQCGHQFTQKGNLLRHIKL", "log2 fold change of degron read counts": -1.26}
{"sequence": "FDCPVCGARFTQKGNLLRHIKL", "log2 fold change of degron read counts": -0.57}
{"sequence": "FKCPICGAWFTQKGNLLRHIKL", "log2 fold change of degron read counts": 0.468}
{"sequence": "FDCDQCGARFTQKGNLLRHIKL", "log2 fold change of degron read counts": -1.35}
{"sequence": "LLCNQCGFSCTQKGNLLRHIKL", "log2 fold change of degron read counts": 0.194}
{"sequence": "FTCEQCGAKFTQKGNLLRHIKL", "log2 fold change of degron read counts": -2.87}
{"sequence": "FKCNQCGRDFTQKGNLLRHIKL", "log2 fold change of degron read counts": -1.59}
{"sequence": "FFCDQCGAPFTQKGNLLRHIKL", "log2 fold change of degron read counts": -0.74}
{"sequence": "FTCDICGACFTQKGNLLRHIKL", "log2 fold change of degron read counts": -1.02}
{"sequence": "FSCPICGRCFTQKGNLLRHIKL", "log2 fold change of degron read counts": -0.435}
{"sequence": "FACEICGRLFTQKGNLLRHIKL", "log2 fold change of degron read counts": -0.6}
{"sequence": "LGCEICGFCCTQKGNLLRHIKL", "log2 fold change of degron read counts": 0.723}
{"sequence": "FECEVCGAVFTQKGNLLRHIKL", "log2 fold change of degron read counts": -1.01}
{"sequence": "FACNQCGRPFTQKGNLLRHIKL", "log2 fold change of degron read counts": 0.0242}
{"sequence": "FACNICGACFTQKGNLLRHIKL", "log2 fold change of degron read counts": -0.206}
{"sequence": "FFCSVCGHQFTQKGNLLRHIKL", "log2 fold change of degron read counts": 0.373}
{"sequence": "LVCEICGFWCTQKGNLLRHIKL", "log2 fold change of degron read counts": 0.344}
{"sequence": "FGCEICGHGFTQKGNLLRHIKL", "log2 fold change of degron read counts": -0.451}
{"sequence": "FDCPICGRSFTQKGNLLRHIKL", "log2 fold change of degron read counts": -0.996}
{"sequence": "LHCEICGFLCTQKGNLLRHIKL", "log2 fold change of degron read counts": 1.02}
{"sequence": "FDCNVCGACFTQKGNLLRHIKL", "log2 fold change of degron read counts": -0.568}
{"sequence": "FICNICGAWFTQKGNLLRHIKL", "log2 fold change of degron read counts": 0.0784}
{"sequence": "FACDVCGADFTQKGNLLRHIKL", "log2 fold change of degron read counts": -1.38}
{"sequence": "FDCDQCGASFTQKGNLLRHIKL", "log2 fold change of degron read counts": -3.58}
{"sequence": "FDCNVCGAYFTQKGNLLRHIKL", "log2 fold change of degron read counts": 0.718}
{"sequence": "FFCEVCGASFTQKGNLLRHIKL", "log2 fold change of degron read counts": -1.31}
{"sequence": "FLCNVCGAFFTQKGNLLRHIKL", "log2 fold change of degron read counts": 0.411}
{"sequence": "FSCPICGRLFTQKGNLLRHIKL", "log2 fold change of degron read counts": -0.455}
{"sequence": "FRCNQCGAWFTQKGNLLRHIKL", "log2 fold change of degron read counts": 0.689}
{"sequence": "FWCNQCGARFTQKGNLLRHIKL", "log2 fold change of degron read counts": 0.3}
{"sequence": "FQCNICGAEFTQKGNLLRHIKL", "log2 fold change of degron read counts": -1.23}
{"sequence": "FNCNVCGANFTQKGNLLRHIKL", "log2 fold change of degron read counts": -1.42}
{"sequence": "FTCPICGRRFTQKGNLLRHIKL", "log2 fold change of degron read counts": -0.753}
{"sequence": "FVCEQCGAKFTQKGNLLRHIKL", "log2 fold change of degron read counts": -1.47}
{"sequence": "FWCPVCGAIFTQKGNLLRHIKL", "log2 fold change of degron read counts": 1.39}
{"sequence": "FCCNQCGRDFTQKGNLLRHIKL", "log2 fold change of degron read counts": -0.0854}
{"sequence": "LCCEICGFLCTQKGNLLRHIKL", "log2 fold change of degron read counts": 0.186}
{"sequence": "FTCDQCGAQFTQKGNLLRHIKL", "log2 fold change of degron read counts": -0.908}
{"sequence": "FVCEVCGAVFTQKGNLLRHIKL", "log2 fold change of degron read counts": -1.21}
{"sequence": "FNCSVCGHKFTQKGNLLRHIKL", "log2 fold change of degron read counts": -0.505}
{"sequence": "FECNQCGHCFTQKGNLLRHIKL", "log2 fold change of degron read counts": -0.197}
